# Several values for one entry are separate records, joined by “and”; a condition that tells them apart may be missing. Equal values may be shown once. In all, about 48,000 compounds went through this assay and about 1,200 (2.5%) were called active. Roughly 2% stayed inconclusive and do not appear here.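 Rule for the calls: active = activation of at least 60% and not above a set upper limit (about 1 call in 100 departs from these limits); inconclusive = activation of 40% to 60%, or above that upper limit; inactive = activation under 40%.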 The list shows a part of the results.
# Target: Probable G-protein coupled receptor 32 (Homo sapiens) (UniProt O75388)
# Assay: qHTS for Agonists of Human Resolvin D1 Receptor DRV1
# Details: CHO-K1 GPR32 beta-arrestin PathHunter luminescence, 90 min; at 76.9 µM; stronger effect = higher value; zero percent set by DMSO-only wells
# How it was run: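 Using DMSO wells as EC0, agonist-induced signal was taken as chemiluminescence from beta-Gal reconstituted upon beta-arrestin recruitment to GPR32 in CHO-K1 cells after 90 min compound treatment.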
# UniProt O75388, sequence (O75388 whole entry, looked up): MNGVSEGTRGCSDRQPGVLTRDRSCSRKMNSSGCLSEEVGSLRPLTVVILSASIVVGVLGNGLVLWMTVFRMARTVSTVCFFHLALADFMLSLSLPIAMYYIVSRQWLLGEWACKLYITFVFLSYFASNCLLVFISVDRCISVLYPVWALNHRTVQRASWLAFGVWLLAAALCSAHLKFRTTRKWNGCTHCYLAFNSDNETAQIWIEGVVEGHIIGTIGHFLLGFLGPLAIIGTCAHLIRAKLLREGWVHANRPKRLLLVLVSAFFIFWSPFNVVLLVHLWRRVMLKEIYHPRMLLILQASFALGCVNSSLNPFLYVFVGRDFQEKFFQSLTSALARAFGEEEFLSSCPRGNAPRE
row,SMILES,activation
1,CCC1=Nc2cc(C(=O)NCc3ccccc3Cl)ccc2Sc2ccc(C)cc21,inactive: -27%
2,CC(C)(C)OC(=O)N1CCC(c2c(C(=O)NCc3ccccc3)cnn2-c2ccccc2)CC1,inactive: -6.91%
3,CCCCn1c(=N)c(S(=O)(=O)c2ccc(Cl)cc2)cc2c(=O)n3cccc(C)c3nc21,inactive: -7.59%
4,COc1ccccc1CNC(=O)CCc1c(C)nc2c(c(C)nn2-c2ccc(C)c(C)c2)c1C,inactive: 3.07%
5,CC1CCC(NC(=O)c2ccc3c(c2)N(Cc2ccccc2)C(=O)c2ccccc2S3(=O)=O)CC1 (stereo not drawn),inactive: -7.54%
6,O=C(NC(=O)c1ccccc1)Nc1ccc(-n2nc(C(F)(F)F)cc2C(F)(F)F)cc1,inactive: 6.23%
7,CCc1ccc(CNC(=O)c2cc3c(=O)n(CC)c4ccccc4c3s2)cc1,inactive: 11.5%
8,Cc1cccc(Nc2c(-c3cccs3)nc3nc(C)cc(C)n23)c1,inactive: -25.6%
9,CCOc1ccccc1CNC(=O)CN1C(=O)CSc2ccc(S(=O)(=O)N3CCOCC3)cc21,inactive: -18.2%
10,COc1ccc(NC(=O)CN(C)S(=O)(=O)c2ccc3c(c2)CCC(=O)N3)c(OC)c1,inactive: -3.41%
11,COc1ccc(OC)c(NC(=O)Cn2c(=O)n(CC3CCCO3)c(=O)c3cc(OC)c(OC)cc32)c1 (stereo not drawn),inactive: -29.9%
12,Cc1ccc(CNC(=O)c2cnc(N3CCCCC3)c3ccccc23)cc1,inactive: -2.54%
13,CCc1ccc(NC(=O)CSc2nc3c(sc4ccccc43)c(=O)n2CCCOC)cc1,inactive: -4.93%
14,O=C(c1ccc2c(c1)CCN2S(=O)(=O)c1ccccc1)N1CCN(c2cccc(Cl)c2)CC1,inactive: -15.6%
15,CCOC(=O)CNc1nc2ccccc2n2c(C)nnc12,inactive: 6.23%
16,CCN1CCC[C@H]1CNC(=O)c1c(O)c(Cl)cc(Cl)c1OC,inactive: -1.35% and inactive: 0.943%
17,Cc1ccc(C)c(OCCn2cc(C(=O)c3cccs3)c3ccccc32)c1,inactive: -13.4%
18,O=[N+]([O-])c1ccc(S(=O)(=O)NCc2nc3cccnc3n2Cc2ccccc2Cl)cc1,inactive: -16.7%
19,Cc1cccc(C(=O)N2CCc3cc(CNC(=O)c4ccc(Br)o4)ccc32)c1,inactive: -22%
20,O=c1nc2c(-c3ccc(F)cc3Cl)n[nH]n2c2ccccc12,inactive: 6.3%
21,COCc1cc(C)nc2sc(C(=O)Nc3ccc(OC(F)(F)F)cc3)c(N)c12,inactive: 26.4%

row,SMILES,activation
1,COc1ccc(C)cc1NC(=O)Cn1c(=O)nc(-c2ccccc2F)c2cc(Cl)ccc21,inactive: -15.8%
2,COC(=O)c1cc(NC(=O)C2CCCN(S(=O)(=O)c3c(C)n[nH]c3C)C2)cc(C(=O)OC)c1 (stereo not drawn),inactive: 3.8%
3,Cc1c(C(=O)OCC2CCCCC2)[nH]c2c1C(=O)CC(c1ccc(F)cc1)C2 (stereo not drawn),inactive: 0.488%
4,CCCCCSc1nnc2c(n1)OC(CC)Nc1ccc(Br)cc1-2 (stereo not drawn),inactive: 25.4%
5,CN1C(C(=O)c2ccccc2)=C(NC(=O)c2ccccc2Br)c2ccccc2S1(=O)=O,inactive: -24.8%
6,COc1ccc(NC(=O)Nc2cccc(OCc3cc(=O)n4cccc(C)c4n3)c2)c(OC)c1,inactive: -14.6%
7,COCCn1c(C)cc(O)c(C(c2ccc(Cl)cc2)N2CCN(c3ccccc3)CC2)c1=O (stereo not drawn),inactive: -8.02%
8,O=S(=O)(c1ccc2[nH]c3c(c2c1)CCCC3)N1CCN(c2cccc(C(F)(F)F)c2)CC1,inactive: -2.28%
9,Cc1nc2ccc(S(=O)(=O)NC(C(=O)N3CCN(c4ccc(Cl)cc4)CC3)C(C)C)cc2s1 (stereo not drawn),inactive: 3.21%
10,CCc1ccc(NC(=O)Cc2csc(COc3cccc(C)c3)n2)cc1,inactive: 11.4%
11,O=c1n(Cc2ccc(Cl)cc2)c2ccccc2c2nc(-c3ccccc3)nn12,inactive: -10.1%
12,Cc1cc(C)cc(Nc2nc3ccccc3n3cnnc23)c1,inactive: -16.4%
13,COc1cc(C2N=C(N)Nc3nc4ccccc4n32)ccc1OCC(=O)O (stereo not drawn),inactive: 14.7%
14,COc1ccc(-c2cc(C(C)=O)c(C)n2CCC(=O)Nc2ccc(C)cc2Cl)cc1,inactive: -14%
15,Cc1cc(C)cc(-n2ccnc2SCC(=O)Nc2ccc(C)cc2C)c1,inactive: 9.48%
16,CC(=O)c1ccc(N2CCN(c3nc4c(S(=O)(=O)c5ccc(C)c(C)c5)nnn4c4ccc(Cl)cc34)CC2)cc1,inactive: 16.7%
17,COc1ccc(-c2cc(C(=O)NCc3ccc(F)cc3)no2)cc1,inactive: -0.3%
18,COc1ccc(C(=O)NCC(c2ccc(N(C)C)cc2)N2CCCC2)cc1 (stereo not drawn),inactive: -8.9%
19,CCC(C(=O)Nc1cc(OC)ccc1OC)n1c(=O)c(C(F)(F)F)nc2ccccc21 (stereo not drawn),inactive: -33.1%
20,O=C(CCCn1c(=O)c2ccccc2n(CC(=O)Nc2cccc(Cl)c2)c1=O)NCc1ccc2c(c1)OCO2,inactive: 16.2%
21,CCOc1ccc2oc(=O)cc(CN3CCN(Cc4ccc(F)cc4)CC3)c2c1,inactive: -13.9%

row,SMILES,activation
1,CCC(=O)N1CCc2cc(Br)cc(S(=O)(=O)CCC(=O)N3CCN(c4ccc(OC)cc4)CC3)c21,inactive: -2.33%
2,CC(C)c1ccc(Nc2ncnc3c2nc2n3CCCC2)cc1,inactive: 31.7%
3,COc1cc(NC(=O)CNC(=O)Cn2ccc3ccccc3c2=O)cc(OC)c1OC,inactive: 13.3%
4,CCC(=O)Nc1ccccc1-c1nc2ccccc2n(C(C)C(=O)Nc2cccc(Cl)c2C)c1=O (stereo not drawn),inactive: -21.2%
5,COc1cccc(CNC(=O)CSc2n[nH]c(-c3ccccc3Cl)n2)c1OC,inactive: 2.45%
6,CCOc1ccc(NC(C)=O)cc1,inactive: 0.176%
7,COc1cccc(C2=C(C(C)=O)Sc3nnc(C4CCCCC4)n3N2C(C)=O)c1,inactive: -45%
8,CCOc1ccccc1CNC(=O)c1cn(-c2ccc(OC)cc2)c(=O)c2ccccc12,inactive: -12.9%
9,CN1CCC[C@@H]1CCO[C@](C)(c1ccccc1)c1ccc(Cl)cc1,active: 68.2%
10,CCOc1ccc(NC(=O)[C@H]2O[C@@H]3OC(C)(C)O[C@@H]3[C@H]3OC(C)(C)O[C@H]32)cc1,inactive: 5.88%
11,Cc1cccc(NC(=O)CSc2nc(=O)n(Cc3ccco3)c3c2CCC3)c1C,inactive: -7.68%
12,CCc1nn(CC(=O)NCc2ccccc2Cl)c(=O)c2cc3ccccc3n12,inactive: -1.26%
13,Cc1cc(C)cc(NC(=O)C(=O)NCCCN2CCOCC2)c1,inactive: 0.295%
14,Cc1ccc2cc3cc(C(=O)N4CCN(c5ccccc5)CC4)oc3nc2c1,inactive: -15.5%
15,O=c1c(N2CCN(c3cccc(Cl)c3)CC2)csc2ccccc12,inactive: -63.3%
16,O=C(Nc1nc2ccc(S(=O)(=O)N3CCCC3)cc2s1)c1ccc(F)cc1,inactive: 9.84%
17,CCc1ccc(Oc2c(C(F)(F)F)oc3c(CN4CCN(CC)CC4)c(O)ccc3c2=O)cc1,inactive: 2.76%
18,CC1CCCCN1CCCNC(=O)c1ccc2c(c1)sc1nc(-c3ccc(F)cc3)cn12 (stereo not drawn),inactive: 9.67%
19,CCOc1ccc(CN(C(=O)c2nc(SC)ncc2Cl)C2CCS(=O)(=O)C2)cc1 (stereo not drawn),inactive: -0.173%
20,CCOC(=O)c1noc2ncnc(N3CCN(c4cccc(Cl)c4)CC3)c12,inactive: 9.47%
21,CCOC(=O)N1CCc2c(sc3c2c(=O)n(-c2ccc(Cl)cc2)c(=O)n3Cc2cccc(OC)c2)C1,inactive: -1.86%

row,SMILES,activation
1,COCCCNC(=O)c1ccc(Cn2c(=O)c3ccccc3n(CC(=O)Nc3ccc(C)cc3C)c2=O)cc1,inactive: 6.89%
2,COc1ccc(-c2nc3nc(C)cc(N4CCN(c5cccc(C(F)(F)F)c5)CC4)n3n2)cc1,inactive: -2.74%
3,Cc1cc(C)cc(NC(=O)Cn2nnc(C(=O)NCc3ccccc3Cl)c2N)c1,inactive: 24.7%
4,COc1ccc(CCNC(=O)c2cc3c(s2)-c2c(C)cccc2OC3)c(OC)c1,inactive: -18.1%
5,CCOc1ccc(C(=O)Nc2ccccc2C(=O)OCc2cc(=O)n3nc(C4CC4)sc3n2)cc1,inactive: -5.93%
6,CC(C)c1cc(C(=O)NC(C)c2ccccc2)no1 (stereo not drawn),inactive: 17.4%
7,CCc1ccc(S(=O)(=O)c2nnn3c2nc(Nc2cc(OC)cc(OC)c2)c2cc(Cl)ccc23)cc1,inactive: 1.42%
8,Cc1ccc(-c2nc(S(=O)(=O)c3ccc(C)cc3)c(SCC(=O)Nc3ccc(F)cc3)o2)cc1,inactive: -8.53%
9,CCN(Cc1ccccc1)C(=O)c1cc2c(=O)oc3ccc(C)cc3c2s1,inactive: 20.8%
10,Cc1cccc2c1-c1sc(C(=O)NCc3ccc(Cl)cc3)cc1CO2,inactive: -1.57%
11,Cc1cccc(N2CC(c3nc4ccccc4n3CCC3CCCCC3)CC2=O)c1 (stereo not drawn),inactive: -2.59%
12,COc1ccc(NC(=O)C2CCN(c3nc4ccccc4nc3C(F)(F)F)CC2)cc1,inactive: 0.748%
13,Nc1cccc2c(N)cccc12,inactive: -23.8%
14,CCOc1ccccc1CNC(=O)c1cnc2c(-c3ccc(OCC)c(OCC)c3)c(C)nn2c1C,inactive: 38%
15,O=C(Cn1cc(SCc2ccccc2)c2ccccc21)N1CCCCCC1,inactive: -12.1%
16,COc1ccc(-c2cn3nc(N4CCC(C(=O)Nc5ccc(Cl)cc5C)CC4)sc3n2)cc1,inactive: 1.64%
17,Cc1oc(-c2ccc(C(=O)NCCc3ccc(Cl)cc3)cc2)nc1CSc1ccccc1,inactive: 20.1%
18,COc1ccc(-n2nc(C(=O)NCCc3ccc(OC)c(OC)c3)c3c4ccccc4n(C)c3c2=O)cc1Cl,inactive: -8.85%
19,COCCCNC(=O)c1c(NC(=O)c2cc(=O)c3ccccc3o2)sc2c1CCCC2,inactive: -3.92%
20,Cc1ccc(N2CCN(c3c(CN4CCCC4)c(=O)oc4ccccc34)CC2)c(C)c1,inactive: -13.5%

# Source: PubChem BioAssay AID1346428 (National Center for Advancing Translational Sciences (NCATS), 2018)
